Data from PubChem BioAssay (NCI).
Several values for one entry are separate records, joined by “and”; a condition that tells them apart may be missing. Equal values may be shown once.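 Dose response: 5 concentrations. Exposure: 48 h. Format: 96-well plates. Endpoint: linear interpolation; highest concentration if not reached. GI50 is the concentration that inhibits growth by half. TGI denotes the concentration required for complete inhibition of growth.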

The molecules below were run on NCI-H322M lung (assay: NCI tumour cell line growth inhibition, 48 h).

First: C/C(=N/NC(=S)Nc1ccccc1)c1nc2ccc(Cl)cc2[nH]1
Second: CCOC(=O)Nc1ccc2nc(-c3cscn3)[nH]c2c1
The GI50 of the first is 990-fold lower: 0.05 µM for the first, 49.3 µM for the second.

Going from `Cc1cccc(N2C(=O)/C(=C/C(Cl)=C/c3ccc([N+](=O)[O-])cc3)SC2=S)c1C` to `CC1(C)CC(C)(C)c2cc(NC(=S)Nc3ccc([N+](=O)[O-])cc3)ccc2S1`, the GI50 rises from 5.04 µM to 9.73 µM (1.9-fold).

Compared with `CC(=O)[CH-]C(C)=O.CC(=O)[CH-]C(C)=O.[O-]c1ccccc1.[O-]c1ccccc1.[Ti+4]`, `Cn1c(I)c(C#C[Si](C)(C)C)c(=O)n(C(=O)c2ccccc2)c1=O` is lower in GI50: over 100 µM for the first, 25.1 µM for the second.

First: O=S(=O)(NC1=NCCN1C(=S)SN1CCn2c1nsc2=S)c1ccc(Cl)cc1
Second: CC1=NN(c2cccc(Cl)c2)C(=O)/C1=C\c1cn(CC(O)CN2CCCCC2)c2ccccc12 (centres undefined)
The GI50 of the first is 1.9-fold higher: 28.7 µM for the first, 14.9 µM for the second.

Compared with `COc1cc(C2CC(c3ccc(Nc4nc(NCCO)nc(NCCO)n4)cc3)=NN2c2cc(Cl)cc(Cl)c2)cc(OC)c1OC` (centres undefined), `COc1ccc2[nH]c(C(=O)N3CCN(C(=O)OCc4ccc5c(Cl)cc(Cl)c(O)c5n4)CC3)cc2c1` is 1.8-fold lower in GI50: 3.01 µM for the first, 1.7 µM for the second.

First: OCc1ccc(N(Cc2ccc(F)cc2)Cc2ccc(F)cc2)cc1Cl
Second: COc1cccc(-c2cc(C(=O)Nc3ccc(/C=C/c4ccc(OC5CCN(C)CC5)cc4)cc3)ccc2OC)c1
The GI50 of the first is 6.1-fold higher: 10.2 µM for the first, 1.67 µM for the second.

Going from `C[C@@H]1C[C@@H]([C@H](O)CC2CC(=O)NC(=O)C2)C(=O)[C@@H](C)C1` to `CN1CCN(C2=NC(=O)/C(=C\c3ccc(N(C)C)cc3)S2)CC1`, the GI50 rises from 0.222 µM to over 100 µM.

Compared with `O=C1c2cccc3cccc(c23)C(=O)N1CCCCCN1CCN(CCN=c2cc3n(-c4ccc(Cl)cc4)c4ccccc4nc-3cc2Nc2ccc(Cl)cc2)CC1`, `O=c1[nH]c(C2CCCN2)nc2c1oc1ccc(Cl)cc12` (centres undefined) is higher in GI50: 39.6 µM for the first, over 100 µM for the second.

Compared with `C/C(=N/NC(=S)Nc1ccccc1)c1nc2ccc(Cl)cc2[nH]1`, `Cc1cccc(C)c1NC(=O)C(=O)Cc1nc2ccccc2s1` is higher in TGI: 0.672 µM for the first, over 100 µM for the second.

Going from `COC1(OC)C2(Cl)C3=CCCC=C3C1(Cl)C(Cl)=C2Cl` to `COc1ccc2[nH]c(C(=O)N3CCN(C(=O)OCc4ccc5c(Cl)cc(Cl)c(O)c5n4)CC3)cc2c1`, the TGI falls from over 100 µM to 3.9 µM.

`O=[N+]([O-])c1ccc(-n2nc3ccc4nonc4c3n2)cc1` and `Cc1cccc(N2C(=O)/C(=C/C(Cl)=C/c3ccc([N+](=O)[O-])cc3)SC2=S)c1C` cannot be ordered by TGI: over 100 µM for the first, over 100 µM for the second.

Going from `CC(=O)C(=Cc1cn(C)c(=O)n(C)c1=O)C(C)=O` to `Cn1c(I)c(C#C[Si](C)(C)C)c(=O)n(C(=O)c2ccccc2)c1=O`, the TGI falls from 180 µM to 57.1 µM (3.2-fold).

`O=C(CC1=Nc2nnc(CCCCCCCc3nnc4n3C(=O)C(CC(=O)c3ccc5ccccc5c3)=N4)n2C1=O)c1ccc2ccccc2c1` and `O=C1c2cccc3cccc(c23)C(=O)N1CCCCCN1CCN(CCN=c2cc3n(-c4ccc(Cl)cc4)c4ccccc4nc-3cc2Nc2ccc(Cl)cc2)CC1` cannot be ordered by TGI: over 100 µM for the first, over 50 µM for the second.

Going from `CC(=O)CC1(CBr)Nc2ccc([N+](=O)[O-])cc2NC1=O` (centres undefined) to `CC1(C)CC(C)(C)c2cc(NC(=S)Nc3ccc([N+](=O)[O-])cc3)ccc2S1`, the TGI falls from over 100 µM to 24.9 µM.

Going from `CC(C)(CO[C@H]1C[C@H]2CC[C@@]1(C)C2(C)C)[N+](=O)[O-]` to `C=C1CCC[C@@H](C)C(O)[C@@H]2OC(=O)C(=C)[C@@H]2C[C@@H](OC(C)=O)[C@@]2(C)CC[C@@H]1O2` (some centres undefined), the TGI falls from 29.6 µM to 15.3 µM (1.9-fold).

`CC(=O)[CH-]C(C)=O.CC(=O)[CH-]C(C)=O.[O-]c1ccccc1.[O-]c1ccccc1.[Ti+4]` and `COC(=O)[C@]1(c2cc3ccccc3n2S(=O)(=O)c2ccccc2)CC2CN(C(=O)OCc3ccccc3)C1C1OC(C)(C)OC21` (some centres undefined) cannot be ordered by TGI: over 100 µM for the first, over 100 µM for the second.

`N#C/C(=C\c1ccc2[nH]ccc2c1)C(=O)NCCCCNC(=O)/C(C#N)=C/c1ccc2[nH]ccc2c1` and `Cc1nc(NC(C)(CO)CO)nc(N/N=C/c2ccc(Cl)cc2)c1C(=O)Nc1ccc(Cl)cc1` cannot be ordered by TGI: over 31.6 µM for the first, over 100 µM for the second.

Going from `O=S(=O)(NC1=NCCN1C(=S)SN1CCn2c1nsc2=S)c1ccc(Cl)cc1` to `CC1=NN(c2cccc(Cl)c2)C(=O)/C1=C\c1cn(CC(O)CN2CCCCC2)c2ccccc12` (centres undefined), the TGI falls from 51.1 µM to 31.8 µM (1.6-fold).

`CCOC(=O)Nc1ccc2nc(-c3cscn3)[nH]c2c1` and `CC(C)(C)C(=O)Nc1c(C=O)ccc2[nH]cnc12` cannot be ordered by TGI: over 100 µM for the first, over 100 µM for the second.

`Cn1/c(=N\N=C2\C=C3CCCCC3(C)CC2)sc2ccccc21` (centres undefined) and `CN1CCN(C2=NC(=O)/C(=C\c3ccc(N(C)C)cc3)S2)CC1` cannot be ordered by TGI: over 100 µM for the first, over 100 µM for the second.

`COc1cc(O)ccc1C(=S)SC` and `C=CCC(O[Si](C)(C)C(C)(C)C)c1cc(O[Si](C)(C)C(C)(C)C)ccc1OC` (centres undefined) cannot be ordered by TGI: over 100 µM for the first, over 100 µM for the second.

Compared with `COc1cc(C2CC(c3ccc(Nc4nc(NCCO)nc(NCCO)n4)cc3)=NN2c2cc(Cl)cc(Cl)c2)cc(OC)c1OC` (centres undefined), `COc1cccc(-c2cc(C(=O)Nc3ccc(/C=C/c4ccc(OC5CCN(C)CC5)cc4)cc3)ccc2OC)c1` is 3-fold lower in TGI: 9.79 µM for the first, 3.24 µM for the second.

Compared with `OCc1ccc(N(Cc2ccc(F)cc2)Cc2ccc(F)cc2)cc1Cl`, `O=C1Nc2ccccc2/C1=C\c1c(Cl)n(-c2ccccc2)c2ccccc12` is 1.7-fold lower in TGI: 22.5 µM for the first, 13.2 µM for the second.

`O=c1c(-c2ccc3c(c2)OCO3)coc2c3c(ccc12)OCO3` and `O=c1[nH]c(C2CCCN2)nc2c1oc1ccc(Cl)cc12` (centres undefined) cannot be ordered by TGI: over 100 µM for the first, over 100 µM for the second.

`COC(=N)C1(C#N)NC(c2ccsc2)C(C#N)(C#N)NC1c1ccsc1` (centres undefined) and `COC1CC(C)(NC(=O)C(F)(F)F)C2OC(c3ccccc3)OCC2O1` (centres undefined) cannot be ordered by TGI: over 100 µM for the first, over 100 µM for the second.

First: Cc1nc2c(Br)cc(Br)cc2c(=O)n1-c1ccccc1NC1OC(CO)C(O)C(O)C1O (centres undefined)
Second: CCC1(O)CC(CCN(Cc2ccccc2)C(=O)OCc2ccccc2)C(OCc2ccccc2)C1O (centres undefined)
The TGI of the first is higher: over 100 µM for the first, 36.7 µM for the second.

Going from `O=C1[C@@H]2[C@@H](CN3CN(c4ccccc4)N=C(c4ccccc4)[C@@]23c2ccccc2)C(=O)N1c1ccccc1` to `COC1/C=C/C(C)C(O)CC(O)/C=C/C(C)C(C(C)C(OC)C(C)CCC(=O)C(C)C(C/C=C/N(C)C=O)OC)OC(=O)/C=C/C=C(\C)CC(OC)CC2=CC(=O)O[C@@H](C(C)C(OC)C1)[C@H]2O` (some centres undefined), the TGI falls from 32.5 µM to 0.533 µM (61-fold).

`NCCO/C=C/C(N)C(=O)O` (centres undefined) and `Cc1c(C)c2c(c(N)c1C#N)C(=O)N(N)C2=O` cannot be ordered by TGI: over 100 µM for the first, over 100 µM for the second.

`C[C@]12CC[C@H]3[C@@H](CC=C4C[C@@H](N5CCCC5)CC[C@@]43C)[C@@H]1C[C@H](N1CCCCC1)[C@@H]2O` gave a TGI of over 100 µM.

In the case of `C[C@@H]1C[C@@H]([C@H](O)CC2CC(=O)NC(=O)C2)C(=O)[C@@H](C)C1`, the TGI is reported as 4.92 µM and 1.69 µM.
For `COC(=O)C1OC(O[C@H]2CC[C@]3(C)[C@H]4CC=C5[C@@H]6CC(C)(C)CC[C@]6(C(=O)OC6OCC(O)C(O)C6OC6OC(C)C(OC7OCC(O)C(O)C7O)C(O)C6O)[C@H](O)C[C@@]5(C)[C@]4(C)CC[C@H]3C2(C)C)C(O)C(O)C1O` (some centres undefined), the TGI was 6.8 µM and 8.09 µM.
